Data as given in patent US6410566B1, “Cyclic amine derivatives and their use as drugs” (Teijin Limited, priority 2000, dated 2002).
Some entries share one result that the patent states for a list of compounds. At least one structure is not confirmed: it was looked up by name or label, or the drawing left a doubt.

What follows are molecules tested against T1, binding of human MIP-1α to THP-1 cells (Homo sapiens, UniProt P32246) (assay: Inhibition of MIP-1α binding to THP-1 cells). Conditions: at 10 μM.
T1 construct: endogenous in cells; host or cells: THP-1 (human monocytic leukemia cell line), whole cells
T1 sequence (P32246 1-355): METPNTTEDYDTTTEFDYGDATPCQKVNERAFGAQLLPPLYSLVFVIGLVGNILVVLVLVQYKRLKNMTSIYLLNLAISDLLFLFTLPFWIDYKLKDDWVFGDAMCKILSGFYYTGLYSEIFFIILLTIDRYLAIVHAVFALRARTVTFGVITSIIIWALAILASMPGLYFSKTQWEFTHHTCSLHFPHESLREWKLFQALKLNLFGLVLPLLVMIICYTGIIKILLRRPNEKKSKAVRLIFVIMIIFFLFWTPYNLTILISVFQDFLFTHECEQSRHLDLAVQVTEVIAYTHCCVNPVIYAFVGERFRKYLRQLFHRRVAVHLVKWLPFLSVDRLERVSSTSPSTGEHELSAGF
Description: Measurement of Inhibition of MIP-1α Binding to THP-1 Cells by Test Compounds
Human monocytic leukemia cell line THP-1 was suspended in assay buffer (RPMI-1640 (Gibco-BRL Co.) containing 0.1% BSA and 25 mM HEPES adjusted to pH 7.4) to give a cell suspension of a concentration of 1×10^7 cells/mL. The test compound was diluted in the assay buffer and used as the test compound solution. Iodinated human MIP-1α (DuPont NEN Co.) was diluted in assay buffer to 250 nCi/mL and used as the labeled ligand solution. In a 96 well filter plate (Millipore Co.), 25 μL of test compound solution, 25 μL of labeled ligand solution and 50 μL of cell suspension were aliquoted into each well in this order, stirred (total reaction volume 100 μL), and incubated for one hour at 18° C.
After the reaction, the reaction solution was filtered, and the filter was washed twice with 200 μL of cold PBS (200 μL of cold PBS was added and then filtered). The filter was air-dried and 25 μL of liquid scintillator was added into each well. The radioactivity retained by the cells on the filter were measured using TopCounit (Packard Instrument Co.).
To calculate the ability of test compounds to inhibit binding of human MIP-1α to THP-1 cells, non-specific binding determined by adding 100 ng of unlabeled human MIP-1α (Peprotech Co.) in place of the test compound was subtracted, while the counts with no test compound added was taken as 100%.
Inhibition (%)={1−(A−B)/(C−B)}×100
(A, counts with test compound added; B, counts with 100 ng of unlabeled human MIP-1α added; C, counts with [^125I]-labeled human MIP-1α added).

| SMILES | inhibition of MIP-1α binding to THP-1 cells |
| --- | --- |
| Cc1cc(C)c(CN2CCC(CNC(=O)CNC(=O)c3cccc(C(F)(F)F)c3)CC2)c(C)c1O [compound 894] | 20-50% |
| O=C(CCCC(=O)c1ccccc1)NC1CCCN(Cc2ccc(Cl)cc2)C1 (racemic) [compound 361] | 20-50% |
| O=C(NCC1CCN(Cc2ccc(Cl)cc2)CC1)C1CCCN1C(=O)c1ccc(C(F)(F)F)cc1 (stereo not shown) [compound 702] | 20-50% |
| CC(OC(=O)Nc1cccc(Cl)c1)C(=O)NCC1CCCN1Cc1ccc(Cl)cc1 (stereo not shown) [compound 352] | 20-50% |
| COc1cc(OC)cc(C(=O)NC2(C(=O)NCC3CCN(Cc4ccc(Cl)cc4)CC3)CC2)c1 [compound 805] | 20-50% |
| O=C(NCC1CCN(Cc2ccc(Cl)cc2)CC1)C1CCCN1C(=O)c1ccc(Cl)cc1 (stereo not shown) [compound 727] | 20-50% |
| Cc1ccc2[nH]c(C(=O)NCC(=O)NCC3CCN(Cc4ccc(Cl)cc4)CC3)cc2c1 [compound 556] | 20-50% |
| CC(C)C(NC(=O)c1ccc(C(=O)c2ccccc2)cc1)C(=O)NCC1CCN(Cc2ccc(Cl)cc2)CC1 (stereo not shown) [compound 642] | 20-50% |
| CC(=O)c1sccc1C(=O)NC(C(=O)NCC1CCN(Cc2ccc(Cl)cc2)CC1)C(C)C (stereo not shown) [compound 665] | 20-50% |
| CSc1ccc(C(=O)NC(C)(C)C(=O)NCC2CCN(Cc3ccc(Cl)cc3)CC2)s1 [compound 774] | 20-50% |
| Nc1oc([N+](=O)[O-])cc1C(=O)N1CCCC1C(=O)NCC1CCN(Cc2ccc(Cl)cc2)CC1 (stereo not shown) [compound 740] | 20-50% |
| Cc1ccc(C(=O)CCC(=O)NCC2CCCN2Cc2ccc(Cl)cc2)cc1 (stereo not shown) [compound 348] | 20-50% |
| Cc1oc(C(C)(C)C)cc1C(=O)NC(C)(C)C(=O)NCC1CCN(Cc2ccc(Cl)cc2)CC1 [compound 775] | 20-50% |
| COc1ccc(C(=O)CCC(=O)NC2CCCN(Cc3ccc(Cl)cc3)C2)cc1F (racemic) [compound 366] | 20-50% |
| O=C(NCC1CCN(Cc2ccc(Cl)cc2)CC1)C1CCCN1C(=O)c1cccs1 (stereo not shown) [compound 715] | > 80% |
| O=C(NC1(C(=O)NCC2CCN(Cc3ccc(Cl)cc3)CC2)CC1)c1cccc(C(F)(F)F)c1 [compound 788] | 20-50% |
| CC(=O)c1cccc(C(=O)N2CCCC2C(=O)NCC2CCN(Cc3ccc(Cl)cc3)CC2)c1 (stereo not shown) [compound 731] | 20-50% |

| SMILES | inhibition of MIP-1α binding to THP-1 cells |
| --- | --- |
| COc1ccc(C(=O)NCC(=O)NCC2CCN(Cc3ccc(Cl)cc3)CC2)cc1 [compound 500] | 20-50% |
| Cc1ccc(C(=O)CCC(=O)NC2CCN(Cc3ccc(Cl)cc3)C2)c(C)c1 (racemic) [compound 218] | 20-50% |
| CC(C)(NC(=O)c1ccc(C(F)(F)F)cc1)C(=O)NCC1CCN(Cc2ccc(Cl)cc2)CC1 [compound 772] | 20-50% |
| O=C(CNC(=O)c1cccs1)NCC1CCN(Cc2ccc(Cl)cc2)CC1 [compound 481] | > 80% |
| CCOc1cc(C(=O)NC(CC(C)C)C(=O)NCC2CCN(Cc3ccc(Cl)cc3)CC2)cc(OCC)c1OCC (stereo not shown) [compound 1054] | 20-50% |
| O=C(CNC(=O)c1cccc(C(F)(F)F)c1)NCC1CCN(Cc2cccc(O)c2)CC1 [compound 904] | 20-50% |
| COC(=O)c1ccc(C(=O)NCC(=O)NCC2CCN(Cc3ccc(Cl)cc3)CC2)cc1 [compound 471] | 20-50% |
| O=C(CC1(CC(=O)NC2CCN(Cc3ccc(Cl)cc3)C2)CCCC1)Nc1ccc(F)cc1 (stereo not shown) [compound 230] | 20-50% |
| CCOc1ccc(C(=O)NCC(=O)NCC2CCN(Cc3ccc(Cl)cc3)CC2)cc1OCC [compound 1018] | 20-50% |
| N#Cc1ccc(C(=O)NCC(=O)NCC2CCN(Cc3ccc(Cl)cc3)CC2)cc1 [compound 470] | 20-50% |
| CSc1ccc(C(=O)NC(COCc2ccccc2)C(=O)NCC2CCN(Cc3ccc(Cl)cc3)CC2)s1 (stereo not shown) [compound 1070] | 20-50% |
| COc1cccc(NC(=O)CCCC(=O)NC2CCCN(Cc3ccc(Cl)cc3)C2)c1 (racemic) [compound 374] | 20-50% |
| Cc1ccc(NC(=O)NCC(=O)NCC2CCN(Cc3ccc(Cl)cc3)CC2)cc1 [compound 855] | 20-50% |
| O=C(NC1(C(=O)NCC2CCN(Cc3ccc(Cl)cc3)CC2)CC1)c1cccc(OC(F)(F)F)c1 [compound 792] | 20-50% |
| Cc1cc(C(=O)N2CCCC2C(=O)NCC2CCN(Cc3ccc(Cl)cc3)CC2)c(C(F)(F)F)o1 (stereo not shown) [compound 747] | > 80% |
| Cc1oc(-c2ccccc2)cc1C(=O)NC(COCc1ccccc1)C(=O)NCC1CCN(Cc2ccc(Cl)cc2)CC1 (stereo not shown) [compound 1073] | 20-50% |
| CSc1ccc(C(=O)NC2(C(=O)NCC3CCN(Cc4ccc(Cl)cc4)CC3)CC2)s1 [compound 796] | 20-50% |

Now from value to molecule:

| inhibition of MIP-1α binding to THP-1 cells | SMILES |
| --- | --- |
| > 80% | NC(=O)CCC(NC(=O)c1cccc(OC(F)(F)F)c1)C(=O)NCC1CCN(Cc2ccc(Cl)cc2)CC1 (stereo not shown) [compound 814] |
| 20-50% | CC(NC(=O)c1ccc(Cl)cc1)C(=O)NCC1CCN(Cc2ccc(Cl)cc2)CC1 (stereo not shown) [compound 586] |
| 20-50% | O=C(NC1(C(=O)NCC2CCN(Cc3ccc(Cl)cc3)CC2)CC1)c1cccc(Cl)c1 [compound 790] |
| 20-50% | COCC(NC(=O)c1cccc([N+](=O)[O-])c1)C(=O)NCC1CCN(Cc2ccc(Cl)cc2)CC1 (stereo not shown) [compound 833] |
| 20-50% | Cc1cccc(C(=O)NC(C)(C)C(=O)NCC2CCN(Cc3ccc(Cl)cc3)CC2)c1 [compound 765] |
| 20-50% | CC(C)(NC(=O)c1cccc(S(C)(=O)=O)c1)C(=O)NCC1CCN(Cc2ccc(Cl)cc2)CC1 [compound 767] |
| > 80% | NC(=O)CCC(NC(=O)c1cccc(Br)c1)C(=O)NCC1CCN(Cc2ccc(Cl)cc2)CC1 (stereo not shown) [compound 818] |
| 20-50% | CCOc1cccc(C(=O)NC(COC)C(=O)NCC2CCN(Cc3ccc(Cl)cc3)CC2)c1 (stereo not shown) [compound 838] |
| 20-50% | CC(NC(=O)c1ccc(C(F)(F)F)cc1)C(=O)NCC1CCN(Cc2ccc(Cl)cc2)CC1 (stereo not shown) [compound 587] |
| 20-50% | CC(NC(=O)c1cccc(C(C)C)c1O)C(=O)NCC1CCN(Cc2ccc(Cl)cc2)CC1 (stereo not shown) [compound 571] |
| 20-50% | CC(=O)c1ccc(C(=O)NC(C(=O)NCC2CCN(Cc3ccc(Cl)cc3)CC2)C(C)C)cc1 (stereo not shown) [compound 647] |
| 20-50% | CCOc1ccc(C(=O)N[C@H](CC(C)C)C(=O)NCC2CCN(Cc3ccc(Cl)cc3)CC2)cc1OCC [compound 1068] |
| > 80% | CCc1cccc(C(=O)N[C@H](CC(C)C)C(=O)NCC2CCN(Cc3ccc(Cl)cc3)CC2)c1 [compound 1066] |
| > 80% | O=C(NC(CO)C(=O)NCC1CCN(Cc2ccc(Cl)cc2)CC1)c1ccc(F)c(C(F)(F)F)c1 (stereo not shown) [compound 761] |
| > 80% | CC(C)C(NC(=O)c1ccoc1)C(=O)NCC1CCN(Cc2ccc(Cl)cc2)CC1 (stereo not shown) [compound 656] |
| 20-50% | Cc1ccc(C(=O)NC(C)C(=O)NCC2CCN(Cc3ccc(Cl)cc3)CC2)s1 (stereo not shown) [compound 580] |
| 20-50% | O=C(NC(COCc1ccccc1)C(=O)NCC1CCN(Cc2ccc(Cl)cc2)CC1)c1cccc([N+](=O)[O-])c1 (stereo not shown) [compound 1076] |
| > 80% | CC(NC(=O)c1cccc(OC(F)(F)F)c1)C(=O)NCC1CCN(Cc2ccc(Cl)cc2)CC1 (stereo not shown) [compound 566] |
| 20-50% | CCOc1ccc(C(=O)N[C@H](C)C(=O)NCC2CCN(Cc3ccc(Cl)cc3)CC2)cc1OCC [compound 1035] |
| > 80% | CCOc1cccc(C(=O)NC(C)(C)C(=O)NCC2CCN(Cc3ccc(Cl)cc3)CC2)c1 [compound 783] |
| > 80% | O=C(NC(CO)C(=O)NCC1CCN(Cc2ccc(Cl)cc2)CC1)c1cccc(OC(F)(F)F)c1 (stereo not shown) [compound 759] |
